Our source for the self-cleavage values is the RNAGym collection of RNA variant scans (doi:10.7554/elife.90254).

B1: LINE1-full (parent)
chain: UACGUAGGUGGUUUUCCCCUGAUAGUGCUAAGGGGGCCUGGAAGUUUGGACUGGGCAGAGCUCAACACAGCGUGGCAAAGUGGCUGUGGCUAGACUGCCUCUCUGGAUUCCUCGUCACUCAGCAGGGCAUCUCUGAGAGAAAUGCC

Read counts are not given, so values of variants with three or more changes are uncertain.

In this series the parent is B1. Put plainly: self-cleavage, relative activity (ratio to wild type); higher = more cleavage; in vitro, sequencing; the parent is a self-cleaving ribozyme.
As to UACGUAGGUGGUUUUCCCCUGGUAGUGCUAAGGGGGCCUGGAAGUUUGGACUGGGCAGAGCUCAACACAGCGUGGCAAAGUGGCAGUGGCUAGACUGCCUCUCUGGAUUCCUCGUCACUCAGCAGGGCAUCUCUGAGAGAAAUGCU, the self-cleavage came out at 0.07. For UACGUAGGUGGUUUUCCCCUGGUAGUGCUAAGGGGGCCUGGAAGUUAGGACUGGGCAGAGCUCAACACAGCGUGGCAAAGUGGCUGUGGCUAGACUGCCUCUCCGGAUUCCUCGUCACUCAGCAGGGCAUCUCUGAGAGAAAUGCC, the self-cleavage worked out at 0.72. In the case of UACGUAGGUGGUUUUCCCCUGGUAGUGCUAAGGGGGCCUGGAAGUUUGGACUGGGCAGAGCUCAACACAGCGUGGCAAAGAGACUGUGGCUAGACUGCCUCUCUGGAUUCCUCGUCACUCAGCAGGGCAUCUCUGAGAGAAAUGCC it was 1.47; in that of UACGUAGGUGGUUUUCCCCUGGUAGUGCUAAGGGGGCCUGGAAGUUAGGACUGGGCAGAGCUCAACACAGCGUGGCAAAGUGGCUGUGGCUAGACUGCCUCUCUGGAUUCCCCGUCACUCAGCAGGGCAUCUCUGAGAGAAAUGCC, 1.19. To UACGUAGGUGGUUUUCCCCUGGUAGUGCUAAGGGGGCCUGGAAGUUUGGACUGGGCAGAGCUCAACACAGCGUGGCAAAGUGGCUGUGGCUAGACAGCCUCUCUGGAUUCCCCGUCACUCAGCAGGGCAUCUCUGAGAGAAAUGCC belongs 0.11. In the case of UACGUAGGUGGUUUUCCCCUGGUAGUGCUAAGGGGGCCUGGAAGCCUGGACUGGGCAGAGCUCAACACAGCGUGGCAAAGUGGCUGUGGCUAGACUGCCUCUCUGGAUUCCUCGUCACUCAGCAGGGCAUCUCUGAGAGAAAUGCC it was 1.06. Take UACGUAGGUGGUUUUCCCCUGGUAGUGCUAAGGGGGCCUGGAAGUUUGGACCGGGCAGAGCUCAACACAGCGUGGCAAAGUGGCUGUGGCUAGACUGCCUCUCCGGAUUCCUCGUCACUCAGCAGGGCAUCUCUGAGAGAAAUGCC: the self-cleavage came out at 0.

On to UACGUAGGUGGUUUUCCCCUGGUAGUGCUAAGGGGGCCUGGAAGUCUGGACUGGGCAGAGCUCAGCACAGCGUGGCAAAGUGGCUGUGGCUAGACUGCCUCUCUGGAUUCCUCGUCACUCAGCAGGGCAUCUCUGAGAGAAAUGCC, for which the self-cleavage was 0.

UACGUAGGUGGUUUUCCCCUGGUAGUGCUAAGGGGGCCUGGAAGUCUGGACUGGGCAGAGCUCAACACAGCGUGGCAAAGUGGCUGUGGCUAGACUGCCUCUCUGGAUUCCUCGUCACUCAGCUGGGCAUCUCGGAGAGAAAUGCC: the self-cleavage was 1.48. In the case of UACGUAGGUGGUUUUCCCCUGGUAGUGCUAAGGGGGCCUGGAAGUUUGGACAGGGCAGAGCUCAACACAGCGUGGCAAAGUGGCUGUGGCUAGACUGCCUCUCUGGAUUCCUCGACACUCAGCAGGGCAUCUCUGAGAGAAAUGCC it was 1.09; in that of UACGUAGGUGGUUUUCCCCUGGUAGUGCUAAGGGGGCCUGGAAGUUUGGACUGGGCAGAGCUCAACACAGCGCGGCAAUGUGGCUGUGGCUAGACUGCCUCUCUGGAUUCCUCGUCACUCAGCAGGGCAUCUCUGAGAGAAAUGCC, 1.89. Take UACGUAGGUGGUUUUCCCCUGGUAGUGCUAAGGGGGCCUGGAAGUUUGGACUGGGCAGAGCUCAACACAGCGUGGCAAAGUGGCUGUGGCUAGACUGCCUCUCAGGAUUCCUCGUCACUCAGCAGGGCAUCUCUGAGAGGAAUGCC: the self-cleavage is 0.56. In the case of UACGUAGGUGGUUUUCCCCUGGUAGUGCUAAGGGGGCCUGGAAGUUUGGACUGGGCAGAGCUCAACACAGCGUGGCAAAGUGGCAGAGGCUAGACUGCCUCUCUGGAUUCCUCGUCACUCAGCAGGGCAUCUCUGAGAGAAAUGCC, the self-cleavage was 0.08.

For the variant UACGUAGGUGGUUUUCCCCUGGUAGUGCUAAGGGGGCCUGGAAGUUUGGACGGGGCAGAGCUCAACACAGCGUGGCAAAGUGGCUGUGGCUAGACUGCCUCUCCGGAUUCCUCGUCACUCAGCAGGGCAUCUCUGAGAGAAAUGCC, the self-cleavage amounted to 2.3.

In the case of UACGUAGGUGGUUUUCCCCUGGUAGUGCUAAGGGGGCCUGGAAGUUUGGACUGGGCAGAGCUCAACACAGCGUGGCAAAGUGGCUGAGGCUAGACUGCCUCUCUGGGUUCCUCGUCACUCAACAGGGCAUCUCUGAGGGAAAUGCC, the self-cleavage came out at 0. As to UACGUAGGUGGUUUUCCCCUGGUAGUGCUAAGGGGGCCUGGAAGUUUGGACUGGGCAGAGCCUAACACAGCGUGGCAAAGUGGCUGUGGCUAGACUGCCUCACUGGAUUCCUCGUCACUCAGCAGGGCAUCUCUGAGAGAAAUGCC, the self-cleavage came out at 0.06. To UACGUAGGUGGUUUUCCCCUGGUAGUGCUAAGGGGGCCUGGAAGUUAGGACUGGGCAGAGCUCAACACGGCGUGGCAAGGUGGCUGAGGCUAGACUGCCUCUCUGGAUUCCUCGUCACUCAGCAGGGCAUCUCUGAGAGAAAUGCC belongs 0.13; to UACGUAGGUGGUUUUCCCCUGGUAGUGCUAAGGGGGCCUGGAAGUUUGGACUGGGCAGAGCUCAACACAGCGUGGCAAAGUGGCAGUGGCUAGACUGCCUCACUGGAUUCCUCGUCACUCAGCAGGGCAUCUCUGAGAGAAAUGCC, 0.14; to UACGUAGGUGGUUUUCCCCUGGUAGUGCUAAGGGGGCCUGGAAGUUUGGACUGGGCAGAGCUCAACACAGCGUGGCAAAGUGGCUGUGGCUAGACUGCCUCUCCGGAUUCCUCGUCACUCAGCAGGGCACCUCUGAGAGAAAUGCC, 1.15.
